Test results as given in the supplement of paper PMC10369915.
Some of the results follow. No stated cut-off is given here; in the data, active = 3.2 or more and inactive = the rest. Only a few entries rise above the background.

B1: HBA1_Y43_T42S (peptide)
chain: PTTKSYFPHFD
B2: GRM3_Y754 (peptide)
chain: ILCTVYAFKTR
B3: GRK3_Y109_R104K_YF (peptide)
chain: KSRQIYDAFIM
B4: HAP1_Y440_R437W (peptide)
chain: DLWEKYMDCGG
B5: HAGH_Y61_YF (peptide)
chain: ALTDNYMFLVI
B6: HBA1_Y25_A27V (peptide)
chain: AHAGEYGVEAL
B7: GSS_Y270 (peptide)
chain: YFRDGYMPRQY
B8: HBA1_Y43_P45R (peptide)
chain: PTTKTYFRHFD
B9: HBA1_Y43_F44L (peptide)
chain: PTTKTYLPHFD
B10: HAGH_Y61_L64V_YF (peptide)
chain: ALTDNYMFVVI
B11: GRIN2A_Y978_N976S (peptide)
chain: DNLSNYVFQGQ
B12: HAO1_Y50_R46S (peptide)
chain: SSWKLYPRMLR
B13: GRIN2B_Y762 (peptide)
chain: FASTGYGIAIQ
B14: HBA1_Y141_R142L (peptide)
chain: VLTSKYLGGGG
B15: GSTP1_Y109_A114V_YF (peptide)
chain: FISLIYTNFEV
B16: HBA1_Y25_A22P (peptide)
chain: AHPGEYGAEAL
B17: GRK3_Y109_YF (peptide)
chain: RSRQIYDAFIM
B18: HARS1_Y138 (peptide)
chain: VPFARYLAMNK

Each binder was assayed against SHP2 C-SH2 domain E139D (assay: enrichment score (SH2-bound / input frequency) (ratio); bacterial display of known human phosphotyrosine sites (pTyr-Var adds point mutants) read by sequencing; higher = stronger binding; tyrosines were phosphorylated by kinases first). Details: peptide library: pTyr-Var.
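Further: displayed peptides selected on beads carrying the immobilized SH2 domain, with library peptides lacking any tyrosine serving as negative controls.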

Enrichment score, inactive:
B1 1.06
B2 1.15
B3 1.02
B4 1.38
B5 0.721
B6 0.533
B7 0.606
B8 0.759
B9 0.88
B10 0.673
B11 0.866
B12 0.699
B13 1.02
B14 1.16
B15 2.06
B16 0.545
B17 0.754
B18 0.596

These binders were tested against SHP2 C-SH2 domain wild-type in the same assay as above. Details: peptide library: pTyr-Var.

Enrichment score, inactive:
B1 0.839
B2 1.07
B3 0.778
B4 2.24
B5 1.01
B6 0.558
B7 0.537
B8 0.569
B9 0.875
B10 0.805
B11 0.817
B12 0.47
B13 0.953
B14 0.658
B15 2.35
B16 0.615
B17 0.745
B18 0.668

Each binder was assayed against SHP2 N-SH2 domain L43F in the same assay as above. Details: peptide library: pTyr-Var.

Enrichment score, inactive:
B1 0.949
B2 1.17
B3 1
B4 1.64
B5 0.648
B6 0.536
B7 0.521
B8 0.74
B9 0.866
B10 0.757
B11 0.726
B12 0.471
B13 0.986
B14 0.684
B15 1.67
B16 0.447
B17 0.776
B18 0.753

What follows are binders tested against SHP2 N-SH2 domain T42A in the same assay as above. Details: peptide library: pTyr-Var.

Enrichment score, inactive:
B1 1.01
B2 1.02
B3 0.998
B4 1.59
B5 0.88
B6 0.548
B7 0.563
B8 0.623
B9 0.673
B10 0.868
B11 0.613
B12 0.629
B13 0.895
B14 0.612
B15 1.86
B16 0.466
B17 0.622
B18 0.641

The binders below were run against SHP2 N-SH2 domain T52S in the same assay as above. Details: peptide library: pTyr-Var.

Enrichment score, inactive:
B1 1.1
B2 1.35
B3 1.15
B4 1.23
B5 0.609
B6 0.627
B7 0.808
B8 0.517
B9 0.816
B10 0.634
B11 1.03
B12 0.576
B13 0.931
B14 0.854
B15 2.28
B16 0.436
B17 0.522
B18 0.71

Each binder was assayed against SHP2 N-SH2 domain wild-type in the same assay as above. Details: peptide library: pTyr-Var.

Enrichment score, inactive:
B1 0.863
B2 1.16
B3 1
B4 2.14
B5 1.16
B6 0.792
B7 0.79
B8 0.82
B9 1.01
B10 0.925
B11 0.738
B12 0.624
B13 1.03
B14 0.638
B15 2.79
B16 0.483
B17 0.725
B18 0.653
